# In all, about 43,000 compounds went through this assay and about 200 (0.47%) were called active. Roughly 12% stayed inconclusive and do not appear here. Calls follow the shape of the dose curve; as a rule, active = well fitted cell-killing curve with a large enough effect; inconclusive = small, poorly fitted or top-dose-only effect, or effect the other way; inactive = flat fitted curve, though single readings scatter. The list shows a part of the results.
# Assay: Cell viability qHTS assay in S16 Pmp22-F2sN cells; also: nearly all actives have a fitted effect of over 65% in size
# Details: S16 Pmp22-F2sN Schwann cells viability, CellTiter-Glo, 24 h; series mostly up to 57.5 µM; activity change, negative = cytotoxicity: at the top concentration
# Summary of the method: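 S16 Pmp22-F2sN Schwann cells (500-1,000/well) in phenol-red-free DMEM with 10% FBS received 23 nL compound by pin tool for 24 h at 37 °C. Viability was then read as CellTiter-Glo luminescence after 15 min at room temperature.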
# % is scaled to controls: 0 for no effect and ±100 for the full control effect; potency is read from the fitted curve at half-maximal effect.
Structure (SMILES),Potency,"activity change, negative = cytotoxicity"
COc1cccc(/C=C/C(=O)Nc2ccc3nc(N4CCN(C)CC4)cc(C)c3c2)c1OC,active: 31.6 µM,
CC(Oc1ccccc1)C(=O)Nc1nnc2n1CCS2 (stereo not given),,inactive: -6.55%
CC(=O)N1CCc2nc3sc(C(=O)Nc4ccc(Cl)cc4F)c(N)c3c(C(F)(F)F)c2C1,,inactive: 4.8%
CCOc1ccccc1NC(=O)Cn1c(=O)ccc2cc(S(=O)(=O)N3CCCC3)ccc21,,inactive: -0.199%
COc1ccc(C(=O)Nc2ccc(-c3nnc4n3CCCCC4)cc2)cc1OC,,inactive: -1.68%
COC(=O)c1cccc(-n2c(CCC(=O)O)ccc2-c2cccs2)c1,,inactive: -2.12%
O=C(c1cc2ccc3cccnc3c2[nH]1)N1CCN(c2ccccc2)CC1,,inactive: 0.665%
COc1cc(-c2nc3nc(C)cc(C)n3c2Nc2ccc(Cl)cc2)ccc1O,,inactive: -2.14%
Cc1nn(C(=O)c2cccc(Cl)c2)c(C)c1S(=O)(=O)N1CCOCC1,,inactive: -3.37%
CCn1c(=O)cc(SCC(=O)NCc2ccc(OC)cc2OC)c2ccccc21,,inactive: -5.42%
COc1ccc(CCNC(=O)c2ccc3c(c2)N(Cc2ccc(F)cc2)C(=O)CS3)cc1OC,,inactive: -2.47%
COc1ccc(OC)c(NC(=O)CSc2ccc(-c3sc(C)nc3C)nn2)c1,,inactive: -8.17%
O=C(COc1ccc(Cl)cc1)Nc1ccc2nc(SCC(=O)N3CCCC3)sc2c1,,inactive: 8%
O=C(c1nc(-c2ccc(Cl)cc2)n2c1CCCCC2)N1CCN(c2ccccc2)CC1,,inactive: -11%
O=C(COc1ccccc1-c1nc(-c2ccccc2)no1)Nc1cccc([N+](=O)[O-])c1,,inactive: -0.0557%
COc1ccc(CCNC(=O)C(=O)NCC(c2ccco2)S(=O)(=O)c2cccs2)cc1OC (stereo not given),,inactive: 0.301%
CCC(=O)N1CCc2cc(S(=O)(=O)NC(CC(C)C)C(=O)NCCc3ccccc3)ccc21 (stereo not given),,inactive: -5.64%
O=C(CSc1nnc2ccc3ccccc3n12)Nc1ccccc1Cl,,inactive: -8.47%
Cc1ccc(NS(=O)(=O)c2ccc(-n3cccn3)cc2)cc1Cl,,inactive: -12.3%
O=C(Cc1ccc(F)cc1)NCc1ccc2c(c1)CCN2C(=O)c1ccc(F)cc1,,inactive: -3.09%
CCOC(=O)N1CCc2c(sc3c2c(=O)n(-c2ccccc2C(F)(F)F)c(=O)n3Cc2ccccc2C)C1,,inactive: -5.05%
COc1cccc(CNC(=O)c2ccc(-c3nc(COc4ccccc4)c(C)o3)cc2)c1,,inactive: -1.93%
CCOc1ccc(C2CC(c3c(O)n(C4CCCCC4)c(=O)[nH]c3=O)=Nc3ccccc3S2)cc1 (stereo not given),,inactive: 11.8%
O=C(Nc1sc2c(c1C(=O)NCc1cccnc1)CCCC2)c1cc(=O)c2ccccc2o1,,inactive: -0.463%

Structure (SMILES),Potency,"activity change, negative = cytotoxicity"
Cc1ccc2nc(COc3ccccc3NC(=O)C(C)(C)C)cc(=O)n2c1,,inactive: 2.58%
COc1cccc2c1cc1c(=O)n(CC(=O)NCc3ccc(C)o3)nc(C)n12,,inactive: -1.16%
CCOc1ccccc1CNC(=O)C1CCN(c2nnc(-n3c(C)ccc3C)s2)CC1,,inactive: -2.38%
CCCCOc1ccc(C2=NC(c3ccncc3)=Nc3ccc(OCC)cc3N2)cc1,,inactive: 10.5%
O=C(Cn1c(=O)n(CC2CCC(C(=O)NCCc3ccccc3)CC2)c(=O)c2ccccc21)Nc1ccccc1 (stereo not given),,inactive: 14.1%
CCc1ccc(NC(=O)CN2C(=O)C(c3ccc(C)cc3)=NC23CCCCC3)cc1,,inactive: -18%
Cc1cccc(Cn2cccc2CNS(=O)(=O)c2ccccc2F)c1,,inactive: -16.8%
CCc1ccc(CNC(=O)Cn2nc(C)n3c(cc4cc(C)ccc43)c2=O)cc1,,inactive: 1.4%
COc1ccc(NC(=O)C(Cc2ccccc2)NS(=O)(=O)c2ccc3c(c2)CCC(=O)N3)c(OC)c1 (stereo not given),,inactive: -15.3%
COc1ccc(NC(=O)CSc2nc3nc(C)c(Cc4ccccc4)c(C)n3n2)cc1OC,,inactive: 3.98%
O=C(C1CCN(S(=O)(=O)c2cccc3nonc23)CC1)N1CCN(c2cccc(Cl)c2)CC1,,inactive: -22.2%
Cc1ccc(Cn2c(=O)c3ccccc3n3c(-c4cccc(O)c4)nnc23)cc1,,inactive: -12.9%
CCN(CC)CCOC(=O)c1ccc(NC(=O)Cn2ncc3c2-c2cc(C)ccc2OC3)cc1,,inactive: 0.193%
Cc1nn(-c2ccc(F)cc2)c(-n2cccc2)c1C(=O)NCCc1ccc(Cl)cc1,,inactive: -11%
Cc1cc(C)n2nc(CNS(=O)(=O)c3ccc(C)c(C)c3)nc2n1,,inactive: -0.724%
CC(C)OCCCn1c(SCC(=O)c2ccccc2)nc2c(sc3ccccc32)c1=O,,inactive: 4.43%
Cc1ccc(CN(Cc2ccco2)C(=O)c2ccc(OCC(C)C)cc2)cc1,,inactive: -11.3%
COc1ccc(NC(=O)c2c(NC(=O)COc3ccccc3)sc3c2CCC(C(C)(C)C)C3)cc1 (stereo not given),,inactive: -4.6%
CCCCN1CCc2nc(Nc3ccc(OC)cc3OC)ncc2C1,,inactive: 6.23%
Cc1nc2sccn2c(=O)c1S(=O)(=O)Nc1cc(Cl)ccc1O,,inactive: -4.38%
CCOC(=O)c1cc(-c2ccc(F)cc2)n(CC(=O)NC2CCCCCC2)c1C,,inactive: -20.3%
CCOc1cccc2c1N[C@@H](c1ccc(C(=O)O)cc1)[C@H]1CC=C[C@@H]21,,inactive: -2.8%
Cc1ccc(-n2nc(C)c3c(C)c(CCC(=O)NCc4ccccc4Cl)c(C)nc32)cc1C,,inactive: 9.27%
COc1ccc(-c2cc(-c3ccccc3)nc3c2COc2ccc(F)cc2-3)cc1,,inactive: 24.4%

Structure (SMILES),Potency,"activity change, negative = cytotoxicity"
CCN(CC)C(=O)Cn1c(=O)cc(C)c2c(C)nn(-c3ccc(C)cc3)c21,,inactive: 1.64%
Cc1ccc(S(=O)(=O)N2CCCc3cc(NS(=O)(=O)c4cc(C)ccc4C)ccc32)cc1,,inactive: -8.99%
Cc1ccc(CSc2ncc(Cl)c(C(=O)NCc3ccccc3)n2)cc1,,inactive: 9.78%
CC(C)c1nn2c(=O)cc(COC(=O)c3ccc(NC(=O)C4CCCCC4)cc3)nc2s1,,inactive: -3.08%
Cc1ccc(C(=O)c2oc3ccccc3c2NC(=O)COc2ccc(C(C)C)cc2)cc1,,inactive: 8.72%
O=C(Nc1ccc(S(=O)(=O)Nc2ncccn2)cc1)c1cc(=O)c2ccccc2o1,,inactive: 4.02%
COc1ccc(-c2cn3cccnc3n2)cc1NC(=O)Nc1ccc(Cl)cc1,,inactive: -5.62%
CCOc1ccc(NC(=O)c2ccc3c(c2)CCN3S(=O)(=O)CC)cc1,,inactive: 26.6%
Cc1ccc(-c2nc(NC(=O)CSc3nc(C)nc4sc5c(c34)CCCC5)ns2)cc1,,inactive: 16.4%
CCOC(=O)c1cccc(NC(=O)C2Cc3ccccc3N2C(=O)c2ccccc2)c1 (stereo not given),,inactive: 2.82%
CCOc1ccc(C(=O)NC2CC(=O)N(c3ccc(C)cc3)C2)cc1OCC (stereo not given),,inactive: 3.96%
Cc1cccc(-n2ncc3c(Nc4ccc(C)c(Cl)c4)ncnc32)c1,,inactive: 21.5%
COc1ccc(NC(=O)c2c(-c3ccccc3)c(-c3ccccc3)nn(C)c2=O)cc1OC,,inactive: -4.02%
Cc1ccc(C)c(Cn2c(=O)n(C(C)C)c(=O)c3oc4ccccc4c32)c1,,inactive: 16.5%
Cc1ccccc1CNC(=O)CN1C(=O)C2CCCCN2c2ccc(C(=O)N3CCCC3)cc21 (stereo not given),,inactive: 4.4%
CCc1nn(CC(=O)N2CCCCC2)c(=O)c2cc3sc(C)cc3n12,,inactive: 10.1%
Cc1ccccc1NC(=O)CCS(=O)(=O)c1cc(Br)cc2c1N(C(=O)C1CC1)CC2,,inactive: 0.166%
c1ccc(CN2CCN(c3ncnc4c3cnn4-c3ccccc3)CC2)cc1,,inactive: 0.13%
CCc1cccc(NC(=O)C2CCC(CNS(=O)(=O)c3ccc(Br)s3)CC2)c1 (stereo not given),,inactive: 3.23%
Cc1ccccc1OCC(=O)Nc1cccc(C(=O)OCc2cc(=O)n3c(C)csc3n2)c1,,inactive: 3.13%
Cc1ccc(S(=O)(=O)Cc2ccc(C(=O)N3CCN(c4cccc(Cl)c4)CC3)o2)cc1,,inactive: -16.9%
O=C(Cn1c(=O)n(-c2ccc(Cl)cc2)c(=O)c2sc3ccccc3c21)NC1CCCC1,,inactive: 11.7%
CCOc1ccc(-c2c(C)nn3c(C)c(C(=O)NCCc4ccc(Cl)cc4)cnc23)cc1OCC,,inactive: -0.354%
COC(=O)c1ccccc1NC(=O)c1cc2cc(C)ccc2n1C,,inactive: -16.3%

Structure (SMILES),Potency,"activity change, negative = cytotoxicity"
Cc1ccccc1Cn1c2ccccc2c2cnn(CC(=O)NCc3ccccn3)c(=O)c21,,inactive: 16%
Cc1ccc(C)c(N2CCN(C(=O)NCc3noc4ccc(C)cc34)CC2)c1,,inactive: -2.03%
O=C(NCCc1ccccc1)C1CCC(CNS(=O)(=O)c2ccc(Cl)cc2)CC1 (stereo not given),,inactive: 18.7%
CCc1ccc(-n2nc(CO)c(C(=O)NCCCc3ccccc3)n2)cc1,,inactive: 3.73%
Cc1ccc(C)c(S(=O)(=O)c2nnn3c2nc(NC2CCCCC2)c2sccc23)c1,,inactive: -19.2%
Cc1ccccc1NC(=O)C(=O)NCC(c1ccc2c(c1)OCO2)N1CCN(c2ccccc2)CC1 (stereo not given),,inactive: 22%
CCOc1ccc(C2C(C(=O)Nc3ccccc3)=C(C)Nc3nc(-c4ccccc4Cl)nn32)cc1OC (stereo not given),,inactive: -6.35%
COc1ccc(CNC(=O)Cn2c(=O)oc3cc(S(=O)(=O)NCc4ccccc4)ccc32)cc1,,inactive: -10.4%
CCCN(C(=O)c1cc(S(=O)(=O)N2CCc3ccccc32)cn1C)c1ccc(OCC)cc1,,inactive: -17.6%
Cc1ccc(Cl)cc1N1CCN(c2ncnc3c2nc2n3CCCC2)CC1,,inactive: -0.931%
CCC(C)NC(=O)c1cc(Sc2cccc(Cl)c2)nc2ccccc12 (stereo not given),,inactive: 0.822%
CCCn1c2ccccc2c2cnn(CC(=O)NCCCN3CCCCC3CC)c(=O)c21 (stereo not given),,inactive: 1.31%
CCOc1ccc(Nc2cc(C)nc3nncn23)cc1,,inactive: 8.86%
Cc1ccccc1NC(=O)Cn1cc(S(=O)(=O)c2ccccc2)c(=O)c2ccccc21,,inactive: 10.7%
COc1ccc(NC(=O)c2cc3c(-c4ccccc4F)nn(C)c3s2)c(OC)c1,,inactive: -2.06%
CCOc1ccc(NC(=O)c2c(C)oc3nc(C)nc(N4CCCC4)c23)cc1,,inactive: -3.72%
COc1ccc(CCNC(=O)CCc2cn(Cc3ccccc3Cl)c3ccccc23)c(OC)c1,,inactive: -2.08%
Cc1ccc(NC(=O)Cn2c(=O)n(-c3ccc(C)cc3)c(=O)c3c2cnn3C)cc1,,inactive: 18.6%
Cc1ccc(Cc2nc3ccccc3nc2SCC(=O)N2CCC(C)CC2)cc1,,inactive: 2.21%
Cc1ccc(-n2nc(C)c3c(C)c(CCC(=O)NC(C)c4ccccc4)c(C)nc32)cc1 (stereo not given),,inactive: 0.854%
Fc1ccc(CN2CCc3nc(N4CCN(c5ccccc5F)CC4)ncc3C2)c(F)c1,,inactive: 5.79%
CCOc1ccc(-c2cc(NC(=O)c3ccccc3)c(C(=O)OC)s2)cc1,,inactive: 4.96%
COc1ccccc1CCNC(=O)c1cccn1-c1nnc(N2CCCC2)s1,,inactive: -1.09%

# Source: PubChem BioAssay AID1508642 (National Center for Advancing Translational Sciences (NCATS), 2021)
